The text below walks through data of article PMC6212790.

The list shows a part of the results. At the low end of the ranking, values are background and their order means little.

The target of the test is T1, GST-Rok-C97-191 (UniProt O34857).
T1 sequence: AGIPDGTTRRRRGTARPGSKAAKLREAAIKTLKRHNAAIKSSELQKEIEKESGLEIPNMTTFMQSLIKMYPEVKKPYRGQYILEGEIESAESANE
In words: protein binding microarray.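 Further: rank score from −0.5 (least bound) to 0.5 (best bound).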 As to conditions: Rok is a gene silencer of Bacillus subtilis; high values mean tight binding; most listed sequences are background and not binding sites; double strand, one strand shown.
As to GTCTTTGA, the binding signal is -0.222 E-score.

In turn, CACTCTTC had a binding signal of -0.178 E-score.

GTAATCAC: the binding signal was -0.089 E-score. As to CATGATGC, the binding signal turned out to be 0.0223 E-score. The figure for ATAAGGAT is 0.025 E-score; for CGAGAAAG it is -0.0869 E-score. The figure for CCTTCATC is -0.0378 E-score; for ACGGAACT it is 0.144 E-score. The figure for CGCTATCC is 0.0357 E-score. In turn, CAACAGAA gave a binding signal of -0.135 E-score. Sequence ACCCGACT yielded a binding signal of 0.0113 E-score. The figure for TGCAATAA is -0.0544 E-score; for GTGGGCAA it is -0.141 E-score; for CTACATAA it is 0.203 E-score. In turn, AAGTAGCT yielded a binding signal of 0.289 E-score. The same measure for CATGCACC: -0.0412 E-score; for TATTCGCA: 0.03 E-score; for CACGCCCC: -0.364 E-score.

Turning to CGGACACG, the binding signal was -0.113 E-score.

For the sequence CAGAGTGG, the binding signal is -0.132 E-score.

Consider GTAACAGA, for which the binding signal was 0.0718 E-score. The figure for CACAATAG is 0.191 E-score; for ACATCTCA it is 0.111 E-score; for AGCCCCGC it is -0.286 E-score.

The sequence TACTAAAA displayed a binding signal of 0.421 E-score. AGTGACAT returned a binding signal of -0.00825 E-score. The figure for CCATCGAA is -0.174 E-score; for AGCTGTGC it is -0.0774 E-score.

On to CTGGTGAC, for which the binding signal is -0.118 E-score.

For CATCTTCA, the binding signal was determined as 0.107 E-score. The figure for AGCGAGAA is 0.113 E-score; for AAGAGTGT it is -0.0454 E-score; for CAGCGCAC it is -0.0441 E-score. The figure for GATTTTCA is -0.0515 E-score; for ATTGAGTA it is 0.068 E-score. The figure for ATTCCTAG is 0.154 E-score; for CAGGAAAG it is -0.169 E-score; for ACAGCTCA it is -0.103 E-score. Turning to ACTCTTGC, the binding signal was determined as 0.0107 E-score. ACTTTAAG yielded a binding signal of 0.0353 E-score. The same measure for CTGGCAGA: 0.0748 E-score; for CCAGAAGG: -0.248 E-score. The figure for ACTCAAGT is 0.0909 E-score.

In turn, GTCCGTCA gave a binding signal of -0.0531 E-score.

With ACCGATTG, the binding signal was -0.0512 E-score.

Turning to CGGCCGTC, the binding signal was -0.214 E-score. The figure for AGCGGAAG is 0.0494 E-score. The same measure for AATACAGA: 0.0883 E-score; for GAGTTATA: 0.213 E-score; for AGCAACAG: 0.0327 E-score. The figure for AGAGCACG is -0.222 E-score; for ATATCTAC it is 0.377 E-score; for TCTAGAGA it is 0.171 E-score. As for AGACGGTG, the binding signal is -0.00614 E-score. The figure for ACAACAAC is 0.138 E-score; for GAAAGGCA it is -0.103 E-score; for CCTCTAAG it is -0.175 E-score. As to TAAGAGTA, the binding signal stood at 0.147 E-score. The same measure for ACGTCACA: -0.15 E-score; for ACTGTATA: 0.322 E-score. The same measure for AGAGTAAG: 0.2 E-score; for CGACAACA: -0.00368 E-score. The figure for AACATACA is 0.343 E-score; for CCGCAACC it is -0.197 E-score; for CGGTCATA it is 0.225 E-score. Regarding AGCCTAAG, the binding signal was -0.058 E-score. With CGACCGTA, the binding signal was -0.0301 E-score. The same measure for CTCGATCA: -0.00141 E-score.

In the case of AAACGGGC, the binding signal was -0.0672 E-score. The same measure for AGATATTG: 0.186 E-score; for AGTGAGAA: -0.0314 E-score. The figure for TGCGACCA is -0.082 E-score. The same measure for AAAATAGG: 0.223 E-score.

Turning to ACAGCGCG, the binding signal was -0.0529 E-score. Turning to AAAAACGC, the binding signal was found to be 0.0504 E-score. In the case of AAATCGAC, the binding signal was -0.115 E-score.

Regarding GGGGGTGA, the binding signal was -0.223 E-score. The same measure for AGTGGAGC: -0.0527 E-score.

As to CCAAACAA, the binding signal was -0.0294 E-score.

Turning to TTCTAAAA, the binding signal was -0.00613 E-score.

In turn, ACTCCGCG came in with a binding signal of 0.0265 E-score. The same measure for CTGGCGAC: -0.196 E-score. The same measure for CGATCGCA: -0.00386 E-score. The figure for ATTTCTTG is -0.00368 E-score. In the case of ATATCCAC, the binding signal stood at 0.182 E-score. In the case of GGGTAATA, the binding signal came out at 0.272 E-score. Regarding AGCTACTC, the binding signal is 0.0569 E-score. The figure for AACAGCAC is -0.0984 E-score; for AATCTGCA it is -0.076 E-score. The figure for AGATCGCA is -0.155 E-score; for ACTCCCGG it is 0.00854 E-score; for ACGCGAGA it is -0.0328 E-score. The same measure for GTCCATTA: 0.0137 E-score; for CAGAGACG: -0.197 E-score; for AAGGTCAC: -0.121 E-score. In turn, TGCAAGCA displayed a binding signal of -0.0889 E-score. The figure for ATTGCAAG is 0.0246 E-score; for TCTTACCA it is 0.251 E-score; for GGGTAAAC it is -0.0929 E-score. GTCTAAAA had a binding signal of -0.0402 E-score. The same measure for ACATAGGG: 0.0208 E-score; for GAAGACGA: -0.192 E-score. The same measure for CACTGCAG: -0.00561 E-score; for AATTACCC: 0.185 E-score. As to TGTAATAA, the binding signal is 0.311 E-score.

Turning to GCCATACA, the binding signal is 0.153 E-score. The same measure for CCATGCAA: -0.0636 E-score; for CAGAAGGG: -0.395 E-score; for AAGGGACA: 0.03 E-score. The same measure for AAAATGCA: 0.153 E-score; for AGGGACTA: -0.297 E-score; for TACACAAA: 0.25 E-score. The same measure for AAAAATTG: 0.123 E-score; for CCTCGTTC: -0.288 E-score; for CGAGTCCA: -0.379 E-score. Turning to ACGATCTG, the binding signal is -0.154 E-score. The figure for GCGAGTCA is -0.0273 E-score.

Sequence GAATCCGC returned a binding signal of -0.113 E-score. The same measure for GAGAATGC: 0.0209 E-score; for ATTGTTTG: 0.178 E-score.

In the case of AGGCTCGA, the binding signal is -0.122 E-score. The same measure for GTCCGCCA: -0.292 E-score; for CCGTCAAG: -0.207 E-score; for ATTGTCTG: -0.217 E-score.

In the case of TAGGGCAA, the binding signal worked out at 0.0571 E-score. The figure for CCCAACCA is 0.00843 E-score; for AGCTTCAG it is -0.161 E-score. The figure for GGGCACTA is -0.131 E-score; for ATCGGGCG it is -0.151 E-score. The same measure for GATAGTAC: 0.184 E-score; for CCCGCAGC: -0.189 E-score.

Take CACTGGGC: the binding signal is -0.426 E-score.

Sequence AAGTAGGT had a binding signal of 0.248 E-score. The figure for ACCATTGG is -0.182 E-score; for AGCCCACC it is -0.271 E-score; for ACCGAGCC it is -0.249 E-score. In turn, AGAACAAG gave a binding signal of 0.161 E-score. The same measure for AAAGCCAA: -0.19 E-score; for AAACTGGC: -0.0457 E-score; for ATGACAAA: 0.117 E-score. The figure for AAAGTCGC is -0.0453 E-score; for CCTGCGCA it is -0.0436 E-score. The same measure for AAATCTTA: 0.124 E-score. For the sequence ATTGTCAA, the binding signal is -0.133 E-score. The figure for CGCCCATC is -0.189 E-score; for AATGGACC it is -0.00673 E-score; for ATGAGGAC it is -0.0214 E-score.

GAATGCAA came in with a binding signal of -0.0262 E-score.

In turn, ACTCATCT registered a binding signal of -0.0629 E-score.

Consider AGAGCCCA, for which the binding signal was -0.215 E-score. The figure for AACAGGGG is -0.0794 E-score. The figure for ACGGCCCA is -0.207 E-score.

In turn, ACGGGTAA had a binding signal of 0.0873 E-score.

GGGTAACA gave a binding signal of -0.0349 E-score.

As for ACGGTTAT, the binding signal stood at 0.165 E-score. The same measure for CCCCGCAA: -0.255 E-score; for CTGGTACA: 0.267 E-score. The same measure for ATGCCTCC: -0.303 E-score. The figure for ACGCGCAA is -0.0496 E-score; for TGAGCGAA it is 0.0328 E-score; for AATGAACA it is 0.135 E-score.

On to ATGAGGGC, for which the binding signal was -0.132 E-score. For the sequence CCGGGAGG, the binding signal was -0.276 E-score.

For the sequence GGACGTTA, the binding signal is -0.0528 E-score. The figure for CTGGCTAC is -0.178 E-score. The figure for AATCGGAC is -0.128 E-score. The same measure for CTTTATCC: -0.062 E-score; for ACTGTGAG: 0.139 E-score. AGTTGGTC: the binding signal was -0.205 E-score.

On to CGCAAAGC, for which the binding signal is -0.29 E-score. GTCGAGCA gave a binding signal of -0.0924 E-score. The figure for GGCCGAGA is -0.288 E-score.
